Laboratory results taken from the supplement of paper PMC12217912.
The list shows a part of the results. The full chains were built here from the parent and the listed change. Values near 0.05 are background.

B1: TEV protease; numbered along this chain (parent)
chain: MGESLFKGPRDYNPISSSICHLTNESDGHTTSLYGIGFGPFIITNKHLFRRNNGTLVVQSLHGVFKVKDTTTLQQHLVDGRDMIIIRMPKDFPPFPQKLKFREPQREERICLVTTNFQTKSMSSMVSDTSCTFPSGDGIFWKHWIQTKDGQCGSPLVSTRDGFIVGIHSASNFTNTNNYFTSVPKNFMELLTNQEAQQWVSGWRLNADSVLWGGHKVFMVKPEEPFQPVKEATQL

Variants of: B1
Test: raw area under fraction-flipped curve 0-4 h after induction (AUC4h, not background-subtracted), DNA-recorder readout of cleavage of the substrate (dimensionless); higher = more cleavage of the substrate by the protease variant
Conditions: temperature: 34 °C; time window: 0-4 h after rhamnose induction
Experimental: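 In vivo DNA recorder in E. coli TOP10(DE3) ΔrhaA at 34 °C. Each TEVp single-site mutant (parent TEVp 0) is paired with a single-site variant of the 7-mer TEVs (canonical ENLYFQ|S). The substrate sits between flexible linkers in a Bxb1-sfGFP-TEVs-SsrA fusion, so cleavage stabilises Bxb1 and speeds flipping of a recombination array, read by NGS. The value is the raw area under the fraction-flipped curve over 0-4 h after rhamnose induction (AUC4h), with ≥20 reads per time point. It is not background-subtracted; inactive controls average about 0.047.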
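Further: Bxb1 expression induced with 0.2% (w/v) L-rhamnose at OD600 near 0.5, cultures sampled hourly, flipped fraction per protease–substrate barcode pair counted by paired-end Illumina sequencing.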

Variant | area with substrate ENLCFQS | area with substrate ENLDFQS | area with substrate ENLEFQS | area with substrate ENLFFQS | area with substrate ENLGFQS | area with substrate ENLHFQS | area with substrate ENLKFQS | area with substrate ENLLFQS | area with substrate ENLNFQS | area with substrate ENLPFQS | area with substrate ENLRFQS | area with substrate ENLSFQS | area with substrate ENLVFQS | area with substrate ENLIFQS | area with substrate ENLQFQS | area with substrate ENLMFQS | area with substrate ENLWFQS | area with substrate ENLTFQS
F173I | 0.0716 | 0.0626 | 0.0552 | 0.0824 | 0.0549 | 0.065 | 0.0527 | 0.0613 | 0.0661 | 0.0667 | 0.069 | 0.0768 | 0.0616 |  |  |  |  | 
F133Q |  | 0.0517 |  | 0.0703 |  |  | 0.065 |  |  | 0.0752 |  | 0.0713 |  | 0.092 | 0.0557 |  |  | 
F133Y | 0.0888 | 0.0578 |  | 0.0999 | 0.0538 | 0.0767 | 0.0841 |  | 0.0377 | 0.0612 | 0.0782 | 0.0489 |  |  |  | 0.0645 |  | 
G28E |  | 0.0501 | 0.066 | 0.0703 |  | 0.0582 | 0.0655 | 0.0438 | 0.0738 | 0.0565 | 0.0689 | 0.0596 | 0.064 | 0.0715 | 0.0721 |  | 0.078 | 
R81L |  | 0.0486 | 0.0667 | 0.0828 | 0.0703 | 0.0707 | 0.0718 |  | 0.0685 |  | 0.0638 |  | 0.0727 |  |  |  | 0.0298 | 
Y34G |  | 0.0489 |  |  |  | 0.0541 | 0.0732 |  |  | 0.0618 | 0.0563 | 0.0711 |  |  |  |  |  | 
T181Y | 0.0621 | 0.0677 | 0.0668 | 0.0492 | 0.0633 |  | 0.0878 | 0.0636 |  | 0.0408 | 0.061 | 0.0877 |  |  | 0.0683 |  |  | 
N175T | 0.0639 | 0.0633 |  | 0.0768 |  |  |  |  |  |  | 0.0836 |  | 0.0533 | 0.0985 | 0.0627 |  | 0.0441 | 
M125K |  | 0.0422 |  | 0.0925 |  |  | 0.0718 | 0.0623 | 0.0495 | 0.0644 |  | 0.0261 |  |  |  | 0.0359 | 0.0692 | 
P9V |  | 0.0576 |  | 0.0914 | 0.072 | 0.0706 | 0.0823 | 0.0707 |  | 0.0517 | 0.094 | 0.0617 | 0.0802 |  |  |  | 0.0548 | 
Y179Q | 0.0655 | 0.0575 | 0.056 | 0.0621 |  |  | 0.0634 |  | 0.0566 | 0.0644 | 0.0627 | 0.0615 | 0.0443 | 0.0822 | 0.0643 |  |  | 
T159L | 0.0696 | 0.0688 | 0.0393 |  | 0.0754 | 0.0557 |  |  | 0.0674 | 0.0553 |  | 0.0592 |  | 0.0836 |  | 0.0537 | 0.0598 | 
P40E |  | 0.0452 | 0.0668 | 0.124 |  | 0.0697 |  |  | 0.0726 | 0.0511 |  | 0.0647 | 0.0952 | 0.095 |  |  | 0.0682 | 
I19C |  | 0.0574 | 0.0437 | 0.0818 | 0.0552 |  | 0.0686 | 0.089 | 0.0512 |  | 0.0745 | 0.0666 |  |  | 0.0688 | 0.0615 | 0.0567 | 
V67M |  | 0.0531 | 0.0489 | 0.0686 | 0.068 |  | 0.068 |  | 0.0695 | 0.0883 | 0.078 |  |  | 0.0791 |  | 0.0793 |  | 
E223C | 0.0696 | 0.0543 | 0.0643 | 0.0839 |  | 0.0748 | 0.0773 | 0.0756 | 0.0665 | 0.0725 |  | 0.101 |  | 0.0924 | 0.0541 |  |  | 

Variant | area with substrate ENLCFQS | area with substrate ENLDFQS | area with substrate ENLEFQS | area with substrate ENLFFQS | area with substrate ENLGFQS | area with substrate ENLHFQS | area with substrate ENLKFQS | area with substrate ENLLFQS | area with substrate ENLNFQS | area with substrate ENLPFQS | area with substrate ENLRFQS | area with substrate ENLSFQS | area with substrate ENLVFQS | area with substrate ENLIFQS | area with substrate ENLQFQS | area with substrate ENLMFQS | area with substrate ENLWFQS | area with substrate ENLTFQS
S60Y |  | 0.0622 | 0.0657 | 0.0697 |  | 0.0678 | 0.0649 |  |  | 0.0651 |  | 0.0468 |  |  |  | 0.0985 |  | 0.074
K148F |  | 0.0731 | 0.0683 | 0.0745 |  |  | 0.0752 |  |  |  | 0.0665 | 0.0712 |  |  |  |  |  | 
I139F | 0.0985 | 0.0647 |  | 0.0935 | 0.0705 | 0.0715 | 0.0729 | 0.0755 | 0.0959 | 0.067 | 0.0654 | 0.0643 |  |  | 0.0849 |  |  | 
F187C | 0.0564 | 0.0603 |  | 0.0904 | 0.068 | 0.063 |  |  | 0.0685 |  |  |  |  |  |  |  | 0.0662 | 
S121L | 0.0562 | 0.0614 | 0.0706 | 0.107 |  | 0.0522 | 0.0666 | 0.0766 |  |  |  | 0.0614 | 0.0822 | 0.0934 |  |  | 0.0635 | 0.0781
S121D | 0.0685 | 0.0546 | 0.0751 | 0.0758 | 0.0661 | 0.0733 | 0.0709 | 0.0588 | 0.0606 | 0.0514 | 0.0708 | 0.0737 |  | 0.0856 | 0.0525 |  |  | 
S121V | 0.0749 | 0.0753 | 0.106 | 0.0782 |  | 0.0685 | 0.0729 | 0.0647 |  | 0.0581 |  |  | 0.0641 | 0.0943 |  |  | 0.0632 | 
H143L | 0.0546 | 0.0687 |  | 0.0634 | 0.059 | 0.0649 | 0.0627 | 0.0583 | 0.0579 |  | 0.0706 | 0.0691 |  |  |  | 0.0622 |  | 
T119H |  | 0.0651 | 0.0771 | 0.0814 |  | 0.0701 | 0.103 |  |  |  |  | 0.0527 | 0.0857 |  | 0.082 | 0.0874 |  | 
N52H |  | 0.0676 | 0.0691 | 0.0659 | 0.0597 |  |  | 0.0641 | 0.0684 |  | 0.0651 |  | 0.0971 |  |  | 0.0587 |  | 
H76Q |  | 0.0499 | 0.0639 |  |  |  | 0.0758 | 0.0685 | 0.0692 |  | 0.0829 | 0.0428 |  |  | 0.0842 |  | 0.0645 | 
A196I | 0.0768 | 0.0634 | 0.0622 | 0.0929 |  | 0.0772 | 0.0456 | 0.0829 | 0.0648 | 0.0494 | 0.0988 | 0.0619 | 0.0846 | 0.0903 | 0.0699 | 0.0978 | 0.0559 | 0.0707
K46Y |  | 0.0687 | 0.0667 | 0.0496 |  | 0.0381 |  |  | 0.0592 | 0.0936 | 0.0583 | 0.0464 | 0.0524 |  | 0.0522 |  | 0.0729 | 
S127Y |  | 0.0562 | 0.0683 | 0.102 | 0.0473 | 0.0781 | 0.0643 |  |  |  |  | 0.0427 |  | 0.125 |  |  |  | 0.0522
N186W | 0.0603 | 0.046 |  | 0.0686 | 0.0684 | 0.0587 | 0.0659 |  | 0.0702 | 0.0495 | 0.0769 | 0.0779 |  | 0.059 |  | 0.0648 | 0.0622 | 
N186E | 0.0642 | 0.0699 | 0.0605 | 0.0804 |  |  |  |  | 0.0787 |  | 0.0678 |  | 0.0602 | 0.0816 |  |  | 0.0818 | 
